To fix the notation:
B1: Caulobacter ParB omega fusion; a variant is named by its letters at X, in order, B8GW30 (parent)
chain: MESVVVGEPGMSEGRRGLGRGLSALLGEVDAAPAQAPGEQLGGSREAPIEILQRNPDQPRRTFREEDLEDLSNSIREKGVLQPILVRPSPDTAGEYQIVAGERAWRAAQRAGLKTVPIMVRELDDLAVLEIGIIENVQRADLNVLEEALSYKVLMEKFERTQENIAQTIGKSXSHVANXMRLLXLPDEVQSYLVSGELTAXHARAIAAAADPVALAKQIIEGGLSVRETEALARKAPNLSAGKSKGGRPPRVKDTDTQALESDLSSVLGLDVSIDHRGSTGTLTITYATLEQLDDLCNRLTRGI

The full ranking holds about 81,000 sequences; the median of “one-hybrid fitness for binding parS DNA” is about -0.17, and the highest 2% start at about 0.51. The list shows a part of the results. Some results are limits rather than exact numbers.

The experiment covers variants of B1. The experiment in a line: one-hybrid fitness for binding parS DNA (scaled: cognate 1, non-cognate 0); higher = stronger binding. The note with it: with parS DNA site. Summed up:
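On M9-minus-histidine containing 0.1 mM IPTG and 5 mM 3-AT, E. coli USO cells with a HIS3 reporter, site 19 bp from the promoter, grew 48 hours at 37°C to select Caulobacter ParB libraries randomised at four specificity codons. Plasmids from before and after were Illumina-sequenced, with three replicate libraries pooled and variants under 10 reads left out. Fitness is the log change in variant-to-wild-type read ratio, rescaled against cognate and non-cognate.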
Regarding RWRK, the “one-hybrid fitness for binding parS DNA” value is not above 0.2. As for RARP, the figure is not above 0.2; as for KSKI, not above 0.2; as for QLHL, not above 0.2. For SPNC, the “one-hybrid fitness for binding parS DNA” value was not above 0.2. ILHC: the “one-hybrid fitness for binding parS DNA” value is not above 0.2.

In the case of HPRC, the “one-hybrid fitness for binding parS DNA” value was not above 0.2.

Turning to PHAP, the “one-hybrid fitness for binding parS DNA” value is not above 0.2. Under KYNN stands 0.374. As for MKSC, the figure is not above 0.2; as for GSDL, not above 0.2; as for YQKT, not above 0.2.

With KREP, the “one-hybrid fitness for binding parS DNA” value is not above 0.2. Under PISS stands not above 0.2; under QHRL, not above 0.2.

For LQAD, the “one-hybrid fitness for binding parS DNA” value was not above 0.2. Turning to IPMG, the “one-hybrid fitness for binding parS DNA” value was not above 0.2. Under SQMC stands not above 0.2; under QWSL, not above 0.2. As for TTEG, the figure is not above 0.2. As for YAVV, the “one-hybrid fitness for binding parS DNA” value is not above 0.2. As for GAKN, the figure is not above 0.2; as for GHPL, not above 0.2.

On to KVSR, for which the “one-hybrid fitness for binding parS DNA” value is not above 0.2. As for PCQS, the figure is not above 0.2; as for PRYR, not above 0.2. With CFPD, the “one-hybrid fitness for binding parS DNA” value is not above 0.2. Turning to FHCR, the “one-hybrid fitness for binding parS DNA” value was not above 0.2. As for DPGR, the figure is not above 0.2.

Regarding VQPC, the “one-hybrid fitness for binding parS DNA” value was not above 0.2.

Regarding RTCD, the “one-hybrid fitness for binding parS DNA” value was not above 0.2. On to ALWL, for which the “one-hybrid fitness for binding parS DNA” value was not above 0.2. For LCRY, the “one-hybrid fitness for binding parS DNA” value was not above 0.2. As for LLKR, the figure is not above 0.2.

For the variant PGKQ, the “one-hybrid fitness for binding parS DNA” value is not above 0.2. As for VECS, the figure is not above 0.2; as for SRVC, not above 0.2; as for SINW, not above 0.2. As for ALAA, the figure is not above 0.2; as for RPYY, not above 0.2; as for YDVC, not above 0.2. Under HGKM stands not above 0.2. Consider VGGR, for which the “one-hybrid fitness for binding parS DNA” value was not above 0.2. Under DSVF stands not above 0.2. As for IRQG, the figure is not above 0.2; as for LNVL, not above 0.2; as for GDYS, not above 0.2. Under RFII stands not above 0.2; under RQTH, not above 0.2.

RVFP: the “one-hybrid fitness for binding parS DNA” value is not above 0.2. Under NVWR stands not above 0.2. Under RNSC stands 0.848; under RHHA, 0.526; under MGAV, not above 0.2. As for ATDC, the figure is not above 0.2; as for VYIG, not above 0.2. In the case of QMKK, the “one-hybrid fitness for binding parS DNA” value was not above 0.2. Under FEQR stands not above 0.2; under MKKG, not above 0.2. As for RENM, the figure is not above 0.2; as for TYSC, not above 0.2.

For the variant QFNL, the “one-hybrid fitness for binding parS DNA” value is not above 0.2. As for KFHR, the figure is not above 0.2; as for VYVR, not above 0.2; as for LKNM, not above 0.2. For the variant CCKC, the “one-hybrid fitness for binding parS DNA” value was not above 0.2. As for RFNI, the figure is not above 0.2; as for VVVW, not above 0.2.

Consider FMFS, for which the “one-hybrid fitness for binding parS DNA” value is not above 0.2. As for NTQC, the figure is not above 0.2; as for HESS, not above 0.2; as for RSAE, not above 0.2. As to PSMR, the “one-hybrid fitness for binding parS DNA” value is not above 0.2.

With LNDT, the “one-hybrid fitness for binding parS DNA” value is not above 0.2.

On to SFSY, for which the “one-hybrid fitness for binding parS DNA” value was not above 0.2.

QDKD: the “one-hybrid fitness for binding parS DNA” value is not above 0.2.

As for DLRG, the “one-hybrid fitness for binding parS DNA” value is not above 0.2. As to PKCT, the “one-hybrid fitness for binding parS DNA” value was not above 0.2. Under FDNN stands not above 0.2.

Regarding RQAK, the “one-hybrid fitness for binding parS DNA” value is not above 0.2.

Regarding PAKY, the “one-hybrid fitness for binding parS DNA” value is not above 0.2. As to SRAE, the “one-hybrid fitness for binding parS DNA” value is not above 0.2. Turning to QNWR, the “one-hybrid fitness for binding parS DNA” value was not above 0.2.

SPGP: the “one-hybrid fitness for binding parS DNA” value was not above 0.2. ICPG: the “one-hybrid fitness for binding parS DNA” value was not above 0.2. Under DTCE stands not above 0.2; under PMTG, not above 0.2; under FPQG, not above 0.2. Under DQTV stands not above 0.2; under FCYP, not above 0.2. Consider SRSD, for which the “one-hybrid fitness for binding parS DNA” value is not above 0.2. As for MLNS, the figure is not above 0.2; as for ANLC, not above 0.2. Under VIDT stands not above 0.2; under NAAS, not above 0.2. As for HKWG, the figure is not above 0.2; as for RIER, not above 0.2.

The record behind these values is a collection of fitness landscapes (doi:10.1016/j.celrep.2020.107928).
